# Data as given in the supplement of paper PMC8728848.
# This is one part of the list.
# B1: CBM40 CPF071 (Clostridium perfringens) (protein)
# chain: MAHHHHHHVGTGSNDDDDKSPDPMLSSLGEYKDINLESSNASNITYDLEKYKNLDEGTIVVRFNSKDSKIQSLLGISNSKTKNGYFNFYVTNSRVGFELRNQKNEGNTQNGTENLVHMYKDVALNDGDNTVALKIEKNKGYKLFLNGKMIKEVKDTNTKFLNNIENLDSAFIGKTNRYGQSNEYNFKGNIGFMNIYNEPLGDDYLLSKTGETK
# Legend:
# Test in all cases: glycan array binding signal (z-score within array); higher = stronger binding
# Conditions in all cases: glycan notation: IUPAC condensed, linker removed
# [1] = biological target: Gal(b1-4)GlcNAc(b1-6)GalNAc
# Procedure, shortened: (§1)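 The binding signal is a Z-score computed within each array and averaged over linkers. Arrays of the same protein sequence at different concentrations or buffers were also averaged together. Data originate from 3228 arrays in the Consortium for Functional Glycomics database, kept only where the protein sequence was available.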
# [2] = biological target: Gal(b1-4)GlcNAc(b1-6)[Gal(b1-3)]GalNAc
# Procedure, shortened: as §1
# [3] = biological target: Gal(b1-4)GlcNAc(b1-6)[Gal(b1-4)GlcNAc(b1-3)]GalNAc
# Procedure, shortened: as §1
# [4] = biological target: Gal(b1-4)GlcNAc6P
# Procedure, shortened: as §1
# [5] = biological target: Gal(b1-6)Gal
# Procedure, shortened: as §1
# [6] = biological target: Gal3S(b1-3)GalNAc
# Procedure, shortened: as §1
# [7] = biological target: Gal3S(b1-3)GlcNAc
# Procedure, shortened: as §1
# [8] = biological target: Gal3S(b1-3)[Fuc(a1-4)]GlcNAc
# Procedure, shortened: as §1
# [9] = biological target: Gal3S(b1-4)Glc
# Procedure, shortened: as §1
# [10] = biological target: Gal3S(b1-4)Glc6S
# Procedure, shortened: as §1
# [11] = biological target: Gal3S(b1-4)GlcNAc
# Procedure, shortened: as §1
# [12] = biological target: Gal3S(b1-4)[Fuc(a1-3)]Glc6S
# Procedure, shortened: as §1
# [13] = biological target: Gal3S(b1-4)[Fuc(a1-3)]GlcNAc
# Procedure, shortened: as §1
# [14] = biological target: Gal3S(b1-4)[Fuc(a1-3)]GlcNAc6S
# Procedure, shortened: as §1
# [15] = biological target: Gal3S4S(b1-4)GlcNAc
# Procedure, shortened: as §1
# [16] = biological target: Gal3S6S(b1-4)GlcNAc
# Procedure, shortened: as §1
# [17] = biological target: Gal3S6S(b1-4)GlcNAc6S
# Procedure, shortened: as §1
# [18] = biological target: Gal4S(b1-4)GlcNAc
# Procedure, shortened: as §1
# [19] = biological target: Gal4S6S(b1-4)GlcNAc
# Procedure, shortened: as §1
# [20] = biological target: Gal6P(b1-4)GlcNAc
# Procedure, shortened: as §1
# [21] = biological target: Gal6S(b1-3)GlcNAc
# Procedure, shortened: as §1
# [22] = biological target: Gal6S(b1-3)GlcNAc6S
# Procedure, shortened: as §1
# [23] = biological target: Gal6S(b1-4)Glc
# Procedure, shortened: as §1
binder,measurement,setting,value
B1,glycan array binding signal (z-score),[1],-0.021
same,glycan array binding signal (z-score),[2],-0.004
same,glycan array binding signal (z-score),[3],-0.382
same,glycan array binding signal (z-score),[4],-0.265
same,glycan array binding signal (z-score),[5],-0.163
same,glycan array binding signal (z-score),[6],-0.43
same,glycan array binding signal (z-score),[7],-0.411
same,glycan array binding signal (z-score),[8],-0.35
same,glycan array binding signal (z-score),[9],-0.474
same,glycan array binding signal (z-score),[10],-0.305
same,glycan array binding signal (z-score),[11],-0.369
same,glycan array binding signal (z-score),[12],-0.052
same,glycan array binding signal (z-score),[13],-0.548
same,glycan array binding signal (z-score),[14],-0.109
same,glycan array binding signal (z-score),[15],0.602
same,glycan array binding signal (z-score),[16],-0.144
same,glycan array binding signal (z-score),[17],-0.278
same,glycan array binding signal (z-score),[18],0.207
same,glycan array binding signal (z-score),[19],-0.321
same,glycan array binding signal (z-score),[20],-0.436
same,glycan array binding signal (z-score),[21],-0.48
same,glycan array binding signal (z-score),[22],0.541
same,glycan array binding signal (z-score),[23],-0.246
